# Data published in PubChem BioAssay AID504706 (National Center for Advancing Translational Sciences (NCATS), 2011).
# The whole screen tested about 320,000 compounds, of which about 200 (0.062%) were called active. Inconclusive means that the source gave no clear call. Such entries were picked first, then a sample of the others. Calls come from the whole dose curve; as a rule, active = well fitted activation curve with a large enough effect; inconclusive = small, poorly fitted or top-dose-only effect; inactive = no such curve, though single readings can be large or run the other way. Potencies of inconclusive entries are left out as doubtful fits.
# Assay: qHTS assay for re-activators of p53 using a Luc reporter; note: nearly all actives have a fitted effect of over 45% in size; for activity change, positive = activation: % of control where 0% means no effect
# Settings: H1299 p53-A138V BP100-luciferase reporter, luminescence, 24 h; series mostly up to 92.2 µM; activity change, positive = activation: at the top concentration
# Procedure, shortened: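 H1299 (p53-null), stable ts p53-A138V + BP100-Luc; 1000 cells/well, Opti-MEM/10% FBS; cpd 4 pt, 1:5; 24 h, 37 deg C, 5% CO2; detection reagent 10 min RT; luminescence.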
# Potency is the fitted concentration of half-maximal effect; tags give direction and shape of the fitted curve.
SMILES,Potency,"activity change, positive = activation"
NS(=O)(=O)c1ccc(O)c(NC(=O)c2ccc([N+](=O)[O-])o2)c1,"inconclusive [activator, full curve, poor fit]",–
Oc1ccccc1-c1cc(-c2ccco2)[nH]n1,"inconclusive [activator, full curve]",–
CS(=O)(=O)c1cccc(C(=O)Nc2ccc3c(c2)OCCCO3)c1,"inconclusive [activator, full curve, poor fit]",–
Cc1ccc2oc3c(c(=O)c2c1)C(c1cccs1)N(CCCN(C)C)C3=O (stereo not given),"inconclusive [activator, single point]",–
O=C(Cc1ccccc1)Nc1ccc(-c2nnc(-c3ccco3)o2)cc1,–,inactive: 28.9%
COc1ccc(CNC(=O)C(CCSC)NS(=O)(=O)c2ccccc2F)cc1 (stereo not given),"inconclusive [activator, single point]",–
N#C/C(=N\Nc1ccc([N+](=O)[O-])cc1)C(=N)N1CCOCC1,–,inactive: 12%
CCCC(=O)NC(c1cccs1)c1cc(Cl)c2cccnc2c1O (stereo not given),"inconclusive [activator, partial curve, poor fit]",–
O=C(CSc1nc2ccccc2s1)N1CCOCC1,"inconclusive [activator, partial curve, poor fit]",–
Cc1cn2nc(N)c3ccccc3c2n1,–,inactive: 0.151%
O=C1CSC(c2cn(-c3ccccc3)nc2-c2ccccc2)N1Cc1ccco1 (stereo not given),–,inactive: -4.75%
CN(CC(=O)Nc1cccc(F)c1)C(=O)c1sc2ccccc2c1Cl,"inconclusive [activator, partial curve, poor fit]",–
Cc1cc(NC(=O)CSc2nnc(C(F)(F)F)n2C)no1,–,inactive: 0.439%
COCCCNC(=O)c1cccn2c(=O)c3cc4ccccc4cc3nc12,"inconclusive [activator, partial curve, poor fit]",–
Cc1cc(C)n(-c2nc3ccccc3c(=O)n2OCC(C)C)n1,–,inactive: 2.24%
CCCCc1nnc(SC(C)C(=O)Nc2nccs2)n1C (stereo not given),"inconclusive [activator, single point]",–
c1ccc(-c2ccc(-c3ccccn3)s2)nc1,"inconclusive [activator, partial curve, poor fit]",–
COc1ccnc(CSC(N)=Nc2ccc(F)cc2)c1,"inconclusive [activator, partial curve, poor fit]",–
Cc1cc(/C=C(/C#N)c2nc3ccccc3[nH]2)c(C)n1-c1cccc([N+](=O)[O-])c1,"inconclusive [activator, full curve, poor fit]",–
O=C(/C=C/c1ccc(OCCCF)cc1)N1CCOCC1,–,inactive: 12.7%
CCSc1ccc(-c2cccc([N+](=O)[O-])c2)nn1,"inconclusive [activator, single point]",–
Fc1ccc2nc(N3CCCCC3)sc2c1,"inconclusive [activator, full curve, poor fit]",–
Cc1ccc2nc(NC(=O)COC(=O)c3ccc(Br)o3)sc2c1,"inconclusive [activator, partial curve, poor fit]",–

SMILES,Potency,"activity change, positive = activation"
CC(=O)c1ccc(NC(=O)CSc2nnc(-c3ccoc3C)n2Cc2ccccc2)cc1,"inconclusive [activator, single point]",–
COc1ccc(N=Nc2nc3ccc(Br)cc3n2C)cc1,"inconclusive [activator, single point]",–
CCn1c2ccccc2c2cc(NC(=O)c3cccc(OC)c3OC)ccc21,–,inactive: 6.88%
C=C(C)CSc1nc(N)c2c3c(sc2n1)CCC3,"inconclusive [activator, partial curve, poor fit]",–
C/C(=N\NC(=O)c1cccs1)C(C)(C)C,"inconclusive [activator, partial curve, poor fit]",–
COc1ccc(-c2nn(-c3ccccc3)cc2/C=N/Nc2ccccn2)cc1OC,–,inactive: 0.301%
COc1ccccc1C(=O)NC(=O)CSc1nc2nc(C)cc(C)n2n1,–,inactive: -0.842%
C/C(=N\S(=O)(=O)c1ccc(C)cc1)NC(=S)Nc1ccccc1,–,inactive: 2.39%
COc1ccc(C(=O)Nc2ccccn2)cc1S(=O)(=O)N1CCOCC1,–,inactive: 5.72%
CC(C)c1ccc(C(CC(=O)O)NC(=O)c2cccs2)cc1 (stereo not given),–,inactive: -4.46%
COc1ccccc1C(=O)OCc1nc(N)nc(Nc2ccccc2C)n1,"inconclusive [activator, single point]",–
O=C(COc1cccc(Oc2ccccc2)c1)Nc1ncccn1,"inconclusive [activator, partial curve, poor fit]",–
Cc1ccc(O)c(NC(=O)c2noc(C(C)C)c2[N+](=O)[O-])c1,"inconclusive [activator, partial curve, poor fit]",–
N#Cc1ccccc1CSc1nc2ncc(Br)cc2[nH]1,"inconclusive [activator, single point]",–
O=C(CSc1nnc(-c2cccnc2)s1)Nc1ccccc1,–,inactive: 3%
Cc1cc(SCc2ccc(Cl)cc2)nc(=O)[nH]1,"inconclusive [activator, single point]",–
O=C(COC(=O)c1cccnc1Cl)Nc1ccc(N2CCCCC2)cc1,"inconclusive [activator, partial curve, poor fit]",–
COc1cccc(/C=N/NC(=O)CCc2n[nH]c(=O)[nH]c2=O)c1O,"inconclusive [activator, partial curve, poor fit]",–
CC(=O)c1ccc(S(=O)(=O)N2CCCC(N(C)CCc3ccccc3)C2)cc1 (stereo not given),"inconclusive [activator, single point]",–
Nc1nc(NC(=O)c2ccc(F)cc2)ns1,"inconclusive [activator, partial curve, poor fit]",–
CCOC(=O)c1sc(NC(=S)NC(=O)c2ccco2)nc1C,"inconclusive [activator, partial curve, poor fit]",–
CC(=O)c1cccc(NC(=O)c2cnn3ccccc23)c1,"inconclusive [activator, full curve, poor fit]",–
